# Assay results as given in PubChem BioAssay (Tox21).
# “And” between values parts separate entries of the source, which are not always exact repeats. Equal values may be shown once. Inconclusive results, whose numbers are uncertain, are shown with a selection of clear calls. For part of these data: Where the call is inconclusive, the potency comes from a doubtful curve fit. The source made the active and inactive calls. Unless noted, the call rests on the fitted dose curve; in most records, active means well fitted curve in the direction sought with a large enough effect in the repeat runs; inconclusive means weak or mixed curves; inactive means no such curve, though single readings can be large; an effect the other way counts as inactive or inconclusive.
# Experiments:
# [1] = qHTS assay for small molecule agonists of the p53 signaling pathway (AID 651631; calls by dose curve; further: nearly all actives have a fitted effect of over 15% in size; further: potency means the concentration at half of the fitted maximal effect; on activation: on the % scale 0 is the no-effect control and ±100 the full control effect); conditions: HCT-116 p53RE-bla reporter, beta-lactamase FRET ratio, 16 h
# Procedure, shortened: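 Quantitative high-throughput format: 4,000 p53RE-bla HCT-116 cells/well, 5 h pre-incubation, 16 h compound exposure at 37 °C, 2 h room-temperature substrate step, fluorescence intensity measured.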
# [2] = qHTS assay for small molecule disruptors of the mitochondrial membrane potential - cell viability (AID 720634; calls by dose curve; further: potency means the concentration at half of the fitted maximal effect; nearly all actives have a fitted effect of over 20% in size)
# Procedure, shortened: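 HepG2 cells, 2,000 per well, attached overnight, then treated 1 hr at 37 C, 5% CO2. Viability read as ATP by CellTiter-Glo luminescence after 30 min at room temperature. Read in the same wells as the m-MPI membrane-potential dye assay.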
# [3] = qHTS assay for small molecule disruptors of the mitochondrial membrane potential (AID 720635); conditions: HepG2 mitochondrial membrane potential, Mito-MPS dye ratio; ratio activity, negative = MMP loss: at 83.2 µM (top of the series) unless noted; further: potency means the concentration at half of the fitted maximal effect; on ratio activity, negative = MMP loss: on the % scale 0 is the no-effect control and ±100 the full control effect
# Procedure, shortened: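 Mitochondrial membrane potential tracked with Mito-MPS dye, red aggregates (ex 540/em 590 nm) against green monomers (ex 490/em 535 nm). Compound treatment 1 hr at 37C, dye 30 min in HepG2.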
# [4] = target: Glucocorticoid receptor (Homo sapiens) (UniProt P04150); assay: qHTS assay to identify small molecule antagonists of the glucocorticoid receptor (GR) signaling pathway (AID 720692; active means well fitted inhibition curve with a large enough effect in the signal ratio in the repeat runs, not every such curve was filed as active; inconclusive means weak or mixed curves, or effect the other way; inactive means no such curve, though single readings can be large or run the other way; the % refers to the signal ratio; further: potency means the concentration at half of the fitted maximal effect; on activity change, negative = inhibition: on the % scale 0 is the no-effect control and ±100 the full control effect); conditions: GR-bla HeLa, beta-lactamase FRET ratio, dexamethasone-stimulated, 18 h; activity change, negative = inhibition: at 58.5 µM (top of the series) unless noted
# Sequence of UniProt P04150 (P04150 whole entry, looked up): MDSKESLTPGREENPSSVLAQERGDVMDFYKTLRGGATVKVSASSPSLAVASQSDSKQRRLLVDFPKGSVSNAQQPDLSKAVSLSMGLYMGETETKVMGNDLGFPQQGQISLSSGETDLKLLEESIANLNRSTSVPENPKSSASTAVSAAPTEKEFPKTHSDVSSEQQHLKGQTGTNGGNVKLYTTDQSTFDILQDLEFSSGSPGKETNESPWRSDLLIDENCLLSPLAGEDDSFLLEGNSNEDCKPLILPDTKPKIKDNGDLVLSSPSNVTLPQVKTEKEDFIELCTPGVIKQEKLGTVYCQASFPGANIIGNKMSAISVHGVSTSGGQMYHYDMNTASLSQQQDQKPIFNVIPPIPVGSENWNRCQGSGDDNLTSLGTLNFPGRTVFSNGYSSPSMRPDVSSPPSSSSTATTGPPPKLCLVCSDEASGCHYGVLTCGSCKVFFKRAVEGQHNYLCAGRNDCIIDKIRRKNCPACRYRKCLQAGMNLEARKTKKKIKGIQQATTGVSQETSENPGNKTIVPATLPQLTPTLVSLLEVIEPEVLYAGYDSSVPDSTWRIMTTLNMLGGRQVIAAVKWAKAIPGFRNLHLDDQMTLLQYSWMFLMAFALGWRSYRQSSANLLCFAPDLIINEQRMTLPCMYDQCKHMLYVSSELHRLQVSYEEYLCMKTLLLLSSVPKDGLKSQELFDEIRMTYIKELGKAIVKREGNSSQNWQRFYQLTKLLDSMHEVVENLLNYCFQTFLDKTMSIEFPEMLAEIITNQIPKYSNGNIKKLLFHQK
# Procedure, shortened: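 GR-bla HeLa cells carrying a GRE-driven beta-lactamase reporter received compound after 4 h plating, then dexamethasone (5 nM final). After 18 h at 37C, the FRET substrate was loaded for 2 h at room temperature and fluorescence read.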
# [5] = qHTS assay for identifying genotoxic compounds that show differential cytotoxicity against isogenic chicken DT40 cell lines with known DNA damage response pathways - Rad54/Ku70 mutant cell line (AID 743015); conditions: DT40 Rad54/Ku70 mutant viability, CellTiter-Glo, 40 h; activity change, negative = cytotoxicity: at 66.8 µM (top of the series) unless noted; further: potency means the concentration at half of the fitted maximal effect; nearly all actives have a fitted effect of over 60% in size
# [6] = qHTS assay to identify small molecule antagonists of the thyroid receptor (TR) signaling pathway (AID 743065); further: nearly all actives have a fitted effect of over 55% in size; further: potency means the concentration at half of the fitted maximal effect
# Procedure, shortened: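 Antagonism measured as loss of luciferase signal in GH3 cells stably carrying a TRE-luciferase reporter, co-treated with compound and T3 (1 nM final) for 23.5 h at 37 C. Viability was read in the same well by CellTiter-Fluor.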
# [7] = target: Estrogen receptor (Homo sapiens) (UniProt P03372); assay: qHTS assay to identify small molecule antagonists of the estrogen receptor alpha (ER-alpha) signaling pathway (AID 743069; active means well fitted curve in the direction sought with a large enough effect in the signal ratio in the repeat runs, not every such curve was filed as active; inconclusive means weak or mixed curves, or effect the other way; inactive means no such curve, though single readings can be large or run the other way; the % refers to the signal ratio; further: potency means the concentration at half of the fitted maximal effect); conditions: HEK293 ER-alpha-UAS-bla, beta-lactamase ratio, antagonist mode; activity, negative = inhibition: at 69.4 µM (top of the series) unless noted
# Sequence of UniProt P03372 (P03372 whole entry, looked up): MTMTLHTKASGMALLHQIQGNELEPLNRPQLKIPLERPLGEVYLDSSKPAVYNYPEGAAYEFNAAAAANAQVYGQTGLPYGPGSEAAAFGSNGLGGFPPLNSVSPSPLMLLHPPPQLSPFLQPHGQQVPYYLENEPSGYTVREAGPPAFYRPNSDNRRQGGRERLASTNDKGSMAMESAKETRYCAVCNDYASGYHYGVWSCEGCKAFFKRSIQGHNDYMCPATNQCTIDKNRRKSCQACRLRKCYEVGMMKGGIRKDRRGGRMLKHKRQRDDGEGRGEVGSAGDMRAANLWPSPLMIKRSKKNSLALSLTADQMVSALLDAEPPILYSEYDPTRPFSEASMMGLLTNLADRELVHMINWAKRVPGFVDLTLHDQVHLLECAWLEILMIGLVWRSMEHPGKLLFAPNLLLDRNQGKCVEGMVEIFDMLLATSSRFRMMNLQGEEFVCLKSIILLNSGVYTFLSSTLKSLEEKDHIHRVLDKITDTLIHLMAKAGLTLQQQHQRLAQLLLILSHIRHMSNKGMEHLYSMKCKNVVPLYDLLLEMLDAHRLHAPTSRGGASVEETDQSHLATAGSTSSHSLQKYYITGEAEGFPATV
# Procedure, shortened: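 Compound effects are measured against 17beta-estradiol stimulation in HEK293 cells with a UAS-controlled beta-lactamase reporter for ER-alpha. Exposure lasts 18 hr at 37C; LiveBLAzer B/G FRET substrate follows for 2 hr at room temperature.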
# [8] = target: Estrogen receptor (Homo sapiens) (UniProt P03372); assay: qHTS assay to identify small molecule agonists of the estrogen receptor alpha (ER-alpha) signaling pathway using the BG1 cell line (AID 743079); conditions: BG1Luc4E2 cells, ERE-luciferase agonist, 22 h; activation: at 70.3 µM (top of the series) unless noted; further: potency means the concentration at half of the fitted maximal effect; nearly all actives have a fitted effect of over 20% in size
# [9] = qHTS assay to identify small molecule antagonists of the estrogen receptor alpha (ER-alpha) signaling pathway using the BG1 cell line (AID 743080; calls by dose curve;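 further: BG1 cells stimulated with 17beta-estradiol alongside compound; potency means the concentration at half of the fitted maximal effect; nearly all actives have a fitted effect of over 25% in size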); conditions: BG1Luc4E2 ERE-luciferase antagonist mode, luminescence; activity change, negative = inhibition: at 70.3 µM (top of the series) unless noted
# Procedure, shortened: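 Readout is ONE-Glo luminescence, taken 30 min at room temperature after reagent addition, preceded by a CellTiter-Fluor viability read; BG1-Luc-4E2 cells had received compound and 17beta-estradiol for 21.5 h at 37 C.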
# [10] = qHTS assay to identify small molecule antagonists of the estrogen receptor alpha (ER-alpha) signaling pathway using the BG1 cell line - cell viability counter screen (AID 743081); conditions: BG1Luc4E2 viability, CellTiter-Fluor, 22 h; activity change, negative = cytotoxicity: at 70.3 µM (top of the series) unless noted;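 further: compound given together with 17beta-estradiol as the ER stimulus; potency means the concentration at half of the fitted maximal effect; nearly all actives have a fitted effect of over 45% in size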
# Aromatase (Homo sapiens) = Aromatase (Homo sapiens) (UniProt P11511); assay: qHTS assay to identify aromatase inhibitors (AID 743083); further: potency means the concentration at half of the fitted maximal effect; nearly all actives have a fitted effect of over 55% in size
# Sequence of UniProt P11511 (P11511 whole entry, looked up): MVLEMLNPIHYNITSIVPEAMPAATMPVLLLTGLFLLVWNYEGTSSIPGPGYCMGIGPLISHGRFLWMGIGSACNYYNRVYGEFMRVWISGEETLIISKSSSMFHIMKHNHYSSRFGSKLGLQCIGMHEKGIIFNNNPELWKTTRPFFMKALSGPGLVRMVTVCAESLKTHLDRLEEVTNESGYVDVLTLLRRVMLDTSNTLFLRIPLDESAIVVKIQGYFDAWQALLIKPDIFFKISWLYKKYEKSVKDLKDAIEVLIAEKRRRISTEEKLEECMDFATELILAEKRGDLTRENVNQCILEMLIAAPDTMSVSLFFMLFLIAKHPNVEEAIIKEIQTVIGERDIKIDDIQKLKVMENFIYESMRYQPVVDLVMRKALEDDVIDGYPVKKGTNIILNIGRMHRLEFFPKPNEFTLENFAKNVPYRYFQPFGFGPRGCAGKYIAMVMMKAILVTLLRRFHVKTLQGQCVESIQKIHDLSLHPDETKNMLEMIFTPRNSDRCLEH
# [11] = qHTS assay to identify small molecule that activate the aryl hydrocarbon receptor (AhR) signaling pathway - cell viability counter screen (AID 743086); further: potency means the concentration at half of the fitted maximal effect; nearly all actives have a fitted effect of over 45% in size
# Procedure, shortened: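 Cytotoxicity counter screen: CellTiter-Fluor signal (30 min, 37 C) in 4000 HepG2 cells/well carrying the DRE-luciferase reporter, following 24 h compound exposure at 37 C.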
# [12] = target: Nuclear receptor subfamily 1 group I member 2 (Homo sapiens) (UniProt O75469); assay: Human pregnane X receptor (PXR) activation by small molecules, qHTS assay (AID 1346985); further: nearly all actives have a fitted effect of over 40% in size; further: potency means the concentration at half of the fitted maximal effect
# Procedure, shortened: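 DPX-2 cells (HepG2 co-transfected with a PXR response element and a CYP3A4-promoter luciferase construct) were seeded at 2,000 per well, rested 5 hr at 37C, then exposed to DMSO-dissolved compounds for 24 hr. Activation was read as luciferase luminescence.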
# [13] = target: Nuclear receptor subfamily 1 group I member 2 (Homo sapiens) (UniProt O75469); assay: CYP3A4 induction through human pregnane X receptor (PXR) by small molecules, qHTS assay (AID 1346984); conditions: DPX-2 HepG2 PXR, CYP3A4-luciferin luminescence, 24 h; activation: at 46.1 µM (top of the series) unless noted; further: on the % scale 0 is the no-effect control and ±100 the full control effect; nearly all actives have a fitted effect of over 40% in size
# Procedure, shortened: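 DPX-2 HepG2 cells carrying a PXR response element and CYP3A4-promoter luciferase construct, treated with compounds 24 hr at 37C. Then P450-Glo CYP3A4 Luciferin-IPA substrate (3uM final) for 3 hr at 37C, One-Glo added, luminescence read.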
# [14] = qHTS assay for small molecules that induce genotoxicity in human embryonic kidney cells expressing luciferase-tagged ATAD5 (AID 651632); further: potency means the concentration at half of the fitted maximal effect; nearly all actives have a fitted effect of over 15% in size
# Procedure, shortened: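 HEK293T cells carrying luciferase-tagged ATAD5 were given compound or DMSO vehicle and incubated 16 hr at 37C, 5% CO2. Luciferase activity was read after 30 min at room temperature with Amplite; a rise signals genotoxic stress.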
# [15] = qHTS assay for small molecules that induce genotoxicity in human embryonic kidney cells expressing luciferase-tagged ATAD5 - cell viability (AID 651634; calls by dose curve; further: potency means the concentration at half of the fitted maximal effect; nearly all actives have a fitted effect of over 25% in size)
# Procedure, shortened: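 HEK293T cells carrying luciferase-tagged ATAD5, 2,000 cells/well, exposed to compound for 15.5 hr at 37C. Viability read as live-cell protease activity by CellTiter-Fluor fluorescence after 30 min at 37C.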
# [16] = target: Glucocorticoid receptor (Homo sapiens) (UniProt P04150); assay: qHTS assay to identify small molecule agonists of the glucocorticoid receptor (GR) signaling pathway (AID 720691; active means well fitted activation curve with a large enough effect in the signal ratio in the repeat runs, not every such curve was filed as active; inconclusive means weak or mixed curves, or effect the other way; inactive means no such curve, though single readings can be large or run the other way; the % refers to the signal ratio; further: potency means the concentration at half of the fitted maximal effect); conditions: GR-bla HeLa, beta-lactamase reporter ratio, 18 h; activation: at 62.4 µM (top of the series) unless noted
# Procedure, shortened: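 GR-bla HeLa cells carrying a GRE-driven beta-lactamase reporter, exposed to compounds for 18 h at 37 C. Reporter activation read as fluorescence after 2 h with LiveBLAzer B/G FRET substrate at room temperature.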
# [17] = qHTS assay to identify small molecule antagonists of the glucocorticoid receptor (GR) signaling pathway - cell viability counter screen (AID 720693); conditions: GR-bla HeLa viability, CellTiter-Glo luminescence, 18 h, with 5 nM dexamethasone present; viability change, negative = cytotoxic: at 58.5 µM (top of the series); further: potency means the concentration at half of the fitted maximal effect; nearly all actives have a fitted effect of over 55% in size
# [18] = target: Androgen receptor (Homo sapiens) (UniProt P10275); assay: qHTS assay to identify small molecule antagonists of the androgen receptor (AR) signaling pathway (AID 743035; active means well fitted inhibition curve with a large enough effect in the signal ratio in the repeat runs, not every such curve was filed as active; inconclusive means weak or mixed curves, or effect the other way; inactive means no such curve, though single readings can be large or run the other way; the % refers to the signal ratio; further: potency means the concentration at half of the fitted maximal effect); conditions: HEK293 AR-UAS-bla, R1881-stimulated, beta-lactamase FRET, 16 h; activity change, negative = inhibition: at 58.5 µM (top of the series) unless noted
# Sequence of UniProt P10275 (P10275 whole entry, looked up): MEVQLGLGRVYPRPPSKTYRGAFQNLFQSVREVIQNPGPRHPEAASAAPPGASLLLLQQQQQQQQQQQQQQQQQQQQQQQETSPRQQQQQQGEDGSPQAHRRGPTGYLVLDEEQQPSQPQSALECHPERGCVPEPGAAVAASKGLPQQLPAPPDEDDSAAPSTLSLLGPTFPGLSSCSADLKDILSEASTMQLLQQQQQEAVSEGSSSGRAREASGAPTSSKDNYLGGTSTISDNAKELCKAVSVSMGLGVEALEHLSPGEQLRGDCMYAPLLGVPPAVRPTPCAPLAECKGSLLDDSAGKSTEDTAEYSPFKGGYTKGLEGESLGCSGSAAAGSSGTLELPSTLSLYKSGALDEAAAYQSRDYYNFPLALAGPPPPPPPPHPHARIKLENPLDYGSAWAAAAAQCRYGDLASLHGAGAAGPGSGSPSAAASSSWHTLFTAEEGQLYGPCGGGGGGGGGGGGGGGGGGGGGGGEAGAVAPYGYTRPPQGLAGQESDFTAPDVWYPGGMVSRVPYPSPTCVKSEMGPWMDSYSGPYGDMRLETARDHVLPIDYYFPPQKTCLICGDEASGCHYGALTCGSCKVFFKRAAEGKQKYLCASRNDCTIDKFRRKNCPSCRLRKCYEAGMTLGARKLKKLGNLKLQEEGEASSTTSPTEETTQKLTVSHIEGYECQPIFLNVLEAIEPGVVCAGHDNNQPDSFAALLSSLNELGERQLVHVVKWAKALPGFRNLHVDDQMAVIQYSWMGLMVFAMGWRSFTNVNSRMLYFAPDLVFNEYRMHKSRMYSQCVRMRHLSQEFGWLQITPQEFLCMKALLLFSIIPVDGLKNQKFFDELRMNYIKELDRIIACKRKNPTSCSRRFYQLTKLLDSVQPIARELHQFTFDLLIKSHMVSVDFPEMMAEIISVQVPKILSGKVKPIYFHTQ
# Procedure, shortened: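 HEK293 cells stably carrying UAS-beta-lactamase reporter, 2,000/well, given compounds plus R1881 agonist and incubated 16 h at 37C. LiveBLAzer B/G FRET substrate then added for 2 h at room temperature before fluorescence reading.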
# [19] = qHTS assay to identify small molecule antagonists of the androgen receptor (AR) signaling pathway using the MDA cell line - cell viability counter screen (AID 743041; further: potency means the concentration at half of the fitted maximal effect; nearly all actives have a fitted effect of over 45% in size); conditions: MDA-kb2 viability, CellTiter-Fluor, 16 h, cells co-treated with R1881 androgen agonist; viability change, negative = cytotoxic: at 70.3 µM (top of the series)
# Procedure, shortened: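 R1881-driven MDA-kb2 AR-luc cells, 3,000/well, were dosed with library compounds for 16 h; cell health came from CellTiter-Fluor fluorescence in the reporter wells.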
# [20] = target: Androgen receptor (Homo sapiens) (UniProt P10275); assay: qHTS assay to identify small molecule antagonists of the androgen receptor (AR) signaling pathway using the MDA cell line (AID 743042; further: potency means the concentration at half of the fitted maximal effect; nearly all actives have a fitted effect of over 55% in size)
# Procedure, shortened: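 Antagonist mode: compounds plus R1881 agonist added to MDA-kb2 AR-luc cells, incubated 16 h at 37C. Luciferase reporter luminescence quantified, with multiplexed CellTiter-Fluor readout for cell viability.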
# [21] = qHTS assay to identify small molecule antagonists of the thyroid receptor (TR) signaling pathway - cell viability counter screen (AID 743064); conditions: GH3.TRE-Luc viability, CellTiter-Fluor, 24 h; activity change, negative = cytotoxic: at 70.3 µM (top of the series) unless noted; further: potency means the concentration at half of the fitted maximal effect; nearly all actives have a fitted effect of over 50% in size
# Procedure, shortened: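 Compounds were tested on GH3.TRE-Luc cells in the presence of T3 at 1 nM final. Following 23.5 h at 37 °C, cell viability was quantified by CellTiter-Fluor.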
# [22] = system: thyroid hormone receptor (rat, GH3 cells); assay: qHTS assay to identify small molecule agonists of the thyroid receptor (TR) signaling pathway (AID 743066; calls by dose curve; further: on the % scale 0 is the no-effect control and ±100 the full control effect); conditions: GH3.TRE-Luc cells, TR agonist luciferase, 24 h; activation: at 83.9 µM (top of the series) unless noted
# [23] = target: Estrogen receptor (Homo sapiens) (UniProt P03372); assay: qHTS assay to identify small molecule agonists of the estrogen receptor alpha (ER-alpha) signaling pathway (AID 743075; calls by dose curve; further: potency means the concentration at half of the fitted maximal effect); conditions: HEK293 ER-alpha-UAS-bla, beta-lactamase FRET ratio, 18 h; activation: at 70.1 µM (top of the series)
# [24] = qHTS assay to identify aromatase inhibitors - cell viability counter screen (AID 743084); conditions: MCF-7 aro ERE viability, CellTiter-Fluor, 24 h; activity change, negative = cytotoxicity: at 70.3 µM (top of the series) unless noted
# [25] = target: Peroxisome proliferator-activated receptor gamma (Homo sapiens) (UniProt P37231); assay: qHTS assay to identify small molecule agonists of the peroxisome proliferator-activated receptor gamma (PPARg) signaling pathway (AID 743094; active means well fitted activation curve with a large enough effect in the signal ratio in the repeat runs, not every such curve was filed as active; inconclusive means weak or mixed curves, or effect the other way; inactive means no such curve, though single readings can be large or run the other way; the % refers to the signal ratio; further: potency means the concentration at half of the fitted maximal effect); conditions: HEK293H PPARg-UAS-bla, beta-lactamase FRET ratio, 17 h; activation: at 57 µM (top of the series) unless noted
# Sequence of UniProt P37231 (P37231 whole entry, looked up): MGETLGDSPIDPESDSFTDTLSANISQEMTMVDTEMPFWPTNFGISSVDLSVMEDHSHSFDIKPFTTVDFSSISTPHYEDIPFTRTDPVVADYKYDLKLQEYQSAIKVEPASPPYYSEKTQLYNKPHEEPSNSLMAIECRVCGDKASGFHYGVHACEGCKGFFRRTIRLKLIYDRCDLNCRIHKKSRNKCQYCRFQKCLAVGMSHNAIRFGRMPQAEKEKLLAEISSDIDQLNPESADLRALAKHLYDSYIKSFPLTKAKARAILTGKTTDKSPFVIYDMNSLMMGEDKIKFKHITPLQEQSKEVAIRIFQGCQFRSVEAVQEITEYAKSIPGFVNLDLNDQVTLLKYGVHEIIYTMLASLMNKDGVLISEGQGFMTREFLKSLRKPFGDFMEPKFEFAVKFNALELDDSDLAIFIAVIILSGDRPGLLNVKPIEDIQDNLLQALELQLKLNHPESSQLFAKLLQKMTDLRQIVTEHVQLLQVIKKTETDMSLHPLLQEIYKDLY
# Procedure, shortened: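 GeneBLAzer PPARg UAS-bla HEK293H cells were plated, rested 5 h, then exposed to compounds for 17 h at 37C. Beta-lactamase activity was read by LiveBLAzer B/G FRET substrate fluorescence after 1 h at room temperature.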
# [26] = qHTS assay to identify small molecule antagonists of the androgen receptor (AR) signaling pathway - cell viability counter screen (AID 743033; further: on the % scale 0 is the no-effect control and ±100 the full control effect; nearly all actives have a fitted effect of over 45% in size); conditions: AR-bla HEK293 viability, CellTiter-Glo luminescence, 16 h; activity change, negative = cytotoxicity: at 58.5 µM (top of the series) unless noted
# [27] = activation: at 73.3 µM (top of the series) unless noted
# Tags describe the fitted curve by direction and shape or compound fluorescence and quenching.
structure (smiles),measurement,setting,value
CCOc1cc(-c2nccc3cc(OC)c(OC)cc23)cc(OCC)c1OCC,Potency,[1]; [27],"inconclusive: 15 µM [falling, partial curve]"
same,Potency,[2],inconclusive: 29.8 µM [cytotoxic]
same,Potency,[3],"inconclusive: 18.8 µM [inhibitor, partial curve, poor fit]"
same,Potency,[4],inactive
same,Potency,[5],active: 8.41 µM
same,Potency,[6],"inconclusive: 33.5 µM [inhibitor, single point]"
same,Potency,[7],"inconclusive: 26.8 µM [fluorescent, single point]"
same,Potency,[8],"inconclusive: 29.8 µM [inhibitor, partial curve]"
same,Potency,[9],"inconclusive: 15 µM [falling, partial curve]"
same,Potency,[10],"inconclusive: 26.6 µM [cytotoxic, partial curve]"
same,Potency,Aromatase (Homo sapiens),"inconclusive: 33.5 µM [inhibitor, single point]"
same,Potency,[11],active: 21.1 µM
same,Potency,[12],"inconclusive: 12.6 µM [activator, partial curve]"
CCCOC(=O)c1ccccc1O,"activity change, negative = inhibition",[4],inconclusive: 10.2%
same,Potency,[10],"inconclusive: 3.35 µM [cytotoxic, full curve]"
same,Potency,[13],inactive
C=C1C(=O)O[C@H]2[C@H]1CC/C(C)=C\CC[C@@]1(C)O[C@@H]21,Potency,[1]; [27],"inconclusive: 21.1 µM [activator, partial curve]"
same,Potency,[14],"inconclusive: 26.6 µM [activator, partial curve, poor fit]"
same,Potency,[15],"inconclusive: 33.5 µM [falling, partial curve, poor fit]"
same,"ratio activity, negative = MMP loss",[3],inconclusive: 34.7%
same,Potency,[16],"inconclusive: 26.8 µM [cytotoxic, single point]"
same,Potency,[4],inconclusive: 26.8 µM [cytotoxic]
same,Potency,[17],"inconclusive: 26.8 µM [cytotoxic, single point]"
same,Potency,[18],active: 23.9 µM
same,Potency,[19],"inconclusive: 33.5 µM [cytotoxic, single point]"
same,Potency,[20],active: 6.68 µM
same,Potency,[21],active: 8.41 µM
same,activation,[22],inconclusive: -9.48% [phenotype inactive]
same,Potency,[23],"inconclusive: 26.8 µM [falling, single point]"
same,Potency,[8],"inconclusive: 23.7 µM [inhibitor, partial curve]"
same,Potency,[24],active: 18.8 µM
same,Potency,[25],"inconclusive: 30.1 µM [fluorescent, single point]"
same,Potency,[12],"inconclusive: 31.6 µM [activator, single point]"
C[S+](CC[C@H](N)C(=O)O)C[C@H]1O[C@@H](n2cnc3c(N)ncnc32)[C@H](O)[C@@H]1O (some centres undefined),activation,[1]; [27],inconclusive: 7.12%
same,activation,[1]; at 73.3 µM (top of the series),inactive: -2.84%
same,"ratio activity, negative = MMP loss",[3],inconclusive: -3.57% and inconclusive: 9%
same,Potency,[26],inactive
same,Potency,[6],inactive
same,Potency,[12],inactive
